Assay results published in US9061010B2, “Methods of treating a Flaviviridae family viral infection and compositions for treating a Flaviviridae family viral infection” (The Board of Trustees of the Leland Stanford Junior …, priority 2007, dated 2015).

Molecular target: HCV NS4B binding to the 3′ terminus of the HCV negative strand RNA (Hepatitis C virus genotype 1a, UniProt P27958)
Assay: Microfluidic (MITOMI) in vitro RNA binding assay of NS4B
Details: read-out: IC50 for inhibition of binding of HCV RNA by NS4B; microfluidics, FIG. 14

HCV NS4B binding to the 3′ terminus of the HCV negative strand RNA, sequence (P27958 1712-1972, looked up, change not shown): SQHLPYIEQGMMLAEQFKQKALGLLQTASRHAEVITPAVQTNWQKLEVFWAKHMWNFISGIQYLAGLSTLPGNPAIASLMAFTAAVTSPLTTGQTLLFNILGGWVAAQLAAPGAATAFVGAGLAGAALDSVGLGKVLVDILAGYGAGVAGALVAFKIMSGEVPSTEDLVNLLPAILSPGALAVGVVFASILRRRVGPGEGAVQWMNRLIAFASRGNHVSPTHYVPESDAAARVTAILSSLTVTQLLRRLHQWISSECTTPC

O=C(O)C1=CC(=C(c2ccc(O)c(C(=O)O)c2)c2ccc(O)c(C(=O)O)c2)C=CC1=O [ATA, Aurintricarboxilic acid]
IC50: 490 ± 10 nM
